Laboratory results as given in PubChem BioAssay AID485294 (National Center for Advancing Translational Sciences (NCATS), 2010).
Out of some 370,000 compounds screened, about 150 (0.041%) were called active. Inconclusive means that the source gave no clear call. Such entries were picked first, then a sample of the others. Calls come from the whole dose curve; as a rule, active = well fitted inhibition curve with a large enough effect; inconclusive = small, poorly fitted or top-dose-only effect; inactive = flat fitted curve, though single readings scatter. No potency is given beside an inconclusive call; the fits are too rough.

What follows are compounds tested against Beta-lactamase (Escherichia coli (strain K12)) (UniProt P00811) (assay: qHTS Inhibitors of AmpC Beta-Lactamase (assay with detergent)). Conditions: AmpC hydrolysis of nitrocefin, absorbance 480 nm, 0.01% Triton; series mostly up to 114 µM.
Procedure, shortened: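 AmpC (5.3 nM in the dispensed reagent) in 20 mM phosphate pH 7.0 with 0.01% (detergent screen) or 0.0001% Triton X-100 was preincubated with compounds for 15 min at room temperature. Nitrocefin was then added from an 800 uM solution, and hydrolysis was followed at 480 nm.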
Note: nearly all actives have a fitted effect of over 25% in size.
Potency is the fitted concentration of half-maximal effect; tags give direction and shape of the fitted curve.

Chain of UniProt P00811 (P00811 whole entry, looked up): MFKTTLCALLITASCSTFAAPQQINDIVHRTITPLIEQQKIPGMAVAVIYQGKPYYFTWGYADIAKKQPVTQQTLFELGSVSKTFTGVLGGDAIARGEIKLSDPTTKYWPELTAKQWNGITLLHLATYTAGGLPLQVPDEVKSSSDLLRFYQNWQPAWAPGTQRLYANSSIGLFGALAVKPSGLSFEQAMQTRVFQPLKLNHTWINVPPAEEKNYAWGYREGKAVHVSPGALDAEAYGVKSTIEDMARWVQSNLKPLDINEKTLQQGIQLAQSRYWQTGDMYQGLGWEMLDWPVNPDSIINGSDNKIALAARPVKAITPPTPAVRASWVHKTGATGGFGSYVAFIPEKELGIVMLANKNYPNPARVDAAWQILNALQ

Compound | Potency
Cc1ccc2c(c1)c1c(n2CC(O)Cn2c(C)nc3ccccc32)CCCC1 (configuration not stated) | inconclusive [inhibitor, partial curve, poor fit]
CCOc1ccc(Cl)cc1/C=N/NC(=O)c1ccccc1 | inactive
CN(C)c1ccc(C(=O)OCC(=O)Nc2ccc(N3CCOCC3)cc2)cc1 | inactive
CC(C)n1c(SCC(N)=O)nc2c1c(=O)n(C)c(=O)n2C | inconclusive [inhibitor, full curve]
O=c1[nH]c(C(F)(F)F)nc2ccccc12 | inconclusive [inhibitor, partial curve]
Cc1nc(S(=O)(=O)c2cccc(Cl)c2)nc2c1CCC2 | inconclusive [inhibitor, full curve, poor fit]
Nc1c(Cl)ncnc1N/N=C/c1ccncc1 | inactive
Cc1nc(C)n(C(C)CNC(=O)c2cccc(Br)c2)n1 (configuration not stated) | inconclusive [inhibitor, full curve, poor fit]
CCOc1ccc(C(=O)CCC(=O)Nc2ccc(C)cn2)cc1 | inconclusive [inhibitor, full curve, poor fit]
Nc1ccncc1N | inconclusive [inhibitor, full curve, poor fit]
O=C(CSc1nc2ccccc2s1)NCc1ccc2c(c1)OCO2 | inconclusive [inhibitor, full curve, poor fit]
Cc1cc(C)cc(NC(=O)COC(=O)COc2cccc3c2OC(C)(C)C3)c1 | inconclusive [inhibitor, full curve, poor fit]
Cc1ccc(CS(=O)(=O)c2cn(CC(=O)Nc3ccon3)c3ccccc23)cc1 | inconclusive [inhibitor, full curve, poor fit]
O=S(=O)(NCCc1csc2nc(-c3ccc(Cl)cc3)nn12)c1ccc(Oc2ccccc2)cc1 | inactive
COc1ccc(C(=O)OCC(=O)NC2CCCCCC2)c(OC)c1 | inactive
CC(=O)c1ccc(NC(=S)NNC(=O)c2ccccc2[N+](=O)[O-])cc1 | inconclusive [inhibitor, full curve, poor fit]
CCn1nc(NC(=O)c2ccncc2)c2cc3ccccc3nc21 | inconclusive [inhibitor, partial curve, poor fit]
COc1ccc(C2CC(C)(c3ccc(OC)cc3)Nc3ccccc3N2)cc1 (configuration not stated) | inactive
COc1ccc(NC(=O)Cc2ccccc2)cc1 | inconclusive [inhibitor, partial curve, poor fit]
O=C(c1ccco1)N1CCN(c2c(-c3ccccc3)c3cc(Cl)ccc3[nH]c2=O)CC1 | inconclusive [inhibitor, full curve]
COc1cccc(NC(=O)c2sc(Cl)nc2C)c1 | inconclusive [inhibitor, full curve]
COc1cccc(-c2cc(C(=O)NCc3ccco3)no2)c1 | inactive
O=C(NCCC1=CCCCC1)C1CCN(S(=O)(=O)c2cccc3cccnc23)CC1 | inconclusive [inhibitor, full curve]

Compound | Potency
Cn1c(=O)n(Cc2ccc(F)cc2)c(=O)c2c1nc1n2CCCN1Cc1ccccc1 | inactive
C/C(=C/C=C/[C@@H](C)C(=O)O)[C@H]1CN[C@H](C(=O)O)[C@H]1CC(=O)O | inconclusive [inhibitor, partial curve]
CN1/C(=C\C=Nc2ccccc2)C(C)(C)c2ccccc21 | inactive
Cc1cc(NC(=O)CSc2ccccn2)cc(NC(=O)CSc2ccccn2)c1 | inconclusive [inhibitor, partial curve, poor fit]
CCOP(=O)(OCC)C(O)c1ccc(Br)cc1 (configuration not stated) | inconclusive [inhibitor, single point]
COc1cc(Cl)c(C)cc1Nc1nc2ccccc2nc1NS(=O)(=O)c1ccccc1 | inactive
CCOC(=O)c1ccc(Oc2nc(NC)nc(SC)n2)cc1 | inactive
C=CC[n+]1c(/C=C/c2ccc(OC(C)=O)c(OC)c2)ccc2ccccc21 | inactive
O=C(CCC(=O)N1CCc2ccccc21)Nc1ccccc1 | inconclusive [inhibitor, full curve, poor fit]
COCCCNC(=O)c1ccccc1Sc1ccc(NC(C)=O)nc1 | inconclusive [inhibitor, full curve, poor fit]
O=C(NCC(c1cccnc1)N1CCN(c2ccccc2)CC1)OCc1ccccc1 (configuration not stated) | inconclusive [inhibitor, partial curve, poor fit]
Cc1cc(C)c(S(=O)(=O)N2CCCCC2)c(C)c1-n1ncnn1 | inconclusive [inhibitor, full curve]
CN(C(=O)c1ccc2ccccc2c1)c1ccccn1 | inactive
FC(F)(F)c1nc(-c2cccs2)ncc1-c1nnnn1-c1ccc(Cl)cc1 | inconclusive [inhibitor, full curve, poor fit]
O=C(CN1CCOCC1)Nc1ccc(S(=O)(=O)N2CCCCCC2)cc1 | inconclusive [inhibitor, full curve, poor fit]
CC(C)CN1C(=O)c2ccc(NC(=O)Cc3ccccc3)cc2C1=O | inconclusive [inhibitor, full curve, poor fit]
Cc1ccc(S(=O)(=O)NCc2cccnc2)c(C)c1 | inconclusive [inhibitor, full curve, poor fit]
Cc1cc(N2CCN(c3cccc(C(F)(F)F)c3)CC2)n2ncnc2n1 | inactive
CC1CCN(S(=O)(=O)c2ccc(NC(=O)C3CSC4(C)CCC(=O)N34)cc2)CC1 (configuration not stated) | inconclusive [inhibitor, full curve]
c1ccc(-c2nc(N3CCOCC3)c3ccccc3n2)nc1 | inconclusive [inhibitor, full curve, poor fit]
CN(C)c1ccnc(SCc2ccccc2Cl)c1C#N | inconclusive [inhibitor, partial curve]
CCOC(=O)C1=C(C)N(CCCC(=O)O)C(=O)NC1c1ccc([N+](=O)[O-])cc1 (configuration not stated) | inconclusive [inhibitor, partial curve, poor fit]
COc1ccc(N(CC(=O)NC2CCCCCC2)S(=O)(=O)c2c(C)nn(C)c2C)cc1 | inactive

Compound | Potency
Nc1cc2sc(-c3ccc(C(=O)O)cc3)nc2cc1Cl | inconclusive [inhibitor, partial curve, poor fit]
COc1cccc(NC(=O)C(Sc2nnnn2C)c2ccccc2)c1 (configuration not stated) | inconclusive [inhibitor, full curve, poor fit]
CCCCCCCCCCOC(=O)Cn1c(COc2cccc(C)c2)[n+](C)c2ccccc21 | inconclusive [inhibitor, partial curve]
CC(C(=O)Nc1ccc(F)c(Cl)c1)N1Cc2ccccc2C1=O (configuration not stated) | inactive
CCSc1oc(-c2ccc(F)cc2)nc1S(=O)(=O)c1ccc(C)cc1 | inconclusive [inhibitor, full curve, poor fit]
Cc1cc(OCC(=O)Nc2cc(-c3nc4ccccc4[nH]3)ccc2C)ccc1Cl | inactive
CC[C@@]12C(=O)N(c3ccc(C)cc3)C(=O)N1[C@H](c1ccc(OC)cc1)[C@@H]1C(=O)N(C(C)(C)C)C(=O)[C@@H]12 | inconclusive [inhibitor, partial curve, poor fit]
O=C(NNS(=O)(=O)c1ccccc1[N+](=O)[O-])c1ccccc1[N+](=O)[O-] | inconclusive [inhibitor, full curve]
CCOC(=O)N1CCC(C(=O)Nc2ccc(OCC)cc2)CC1 | inconclusive [inhibitor, full curve, poor fit]
CN(C)C(=O)c1c(C(F)(F)F)nn(C)c1Cl | inconclusive [inhibitor, full curve, poor fit]
O=C(O)CCCNc1ccc(S(=O)(=O)Nc2ccccc2C(=O)O)cc1C(=O)O | inconclusive [inhibitor, partial curve]
COc1ccc(Oc2nc3c(c(=O)n(C)c(=O)n3C)n2Cc2ccccc2Cl)cc1 | inactive
Cc1ccc(C(=O)Oc2cccc(NC(=O)c3ccco3)c2)cc1S(=O)(=O)N1CCC(C)CC1 | inconclusive [inhibitor, full curve, poor fit]
Cc1cccn2c(CN3CCCN(C=O)CC3)c(C(=O)N(C)CCc3ccccc3)nc12 | inconclusive [inhibitor, full curve, poor fit]
CCC(CC)C(=O)N1CC(=O)Nc2ccc(Br)cc2C1c1ccccc1 (configuration not stated) | inconclusive [inhibitor, partial curve, poor fit]
Cc1cc(C)c(OCCCn2ccnc2)c(C)c1 | inconclusive [inhibitor, full curve, poor fit]
COc1ccc(OC)c(C2Nc3ccccc3NC3=C2C(=O)CC(C)(C)C3)c1 (configuration not stated) | inactive
Cc1ccc(C(=O)N/C(=C\c2sccc2C)C(=O)NCc2ccncc2)cc1 | inconclusive [inhibitor, partial curve, poor fit]
CN(Cc1cc(=O)n2ccsc2n1)c1ccccc1 | inconclusive [inhibitor, full curve]
Cc1cc(C(=O)CSc2n[nH]c(N)n2)c(C)n1-c1cccc(F)c1 | inconclusive [inhibitor, partial curve, poor fit]
CN(C)S(=O)(=O)c1cccc(NC(=O)c2ccc3c(c2)S(=O)(=O)N=C2CCCCCN23)c1 | inconclusive [inhibitor, single point]
